According to the supplement of paper PMC12015411:
Bacterial growth in Mueller-Hinton broth at 37 °C with the drug at the dose given, alone or with nitroxoline. Checkerboards on E. coli BW25113: OD600 at the end of exponential growth as a fraction of no-drug wells. Colistin series: OD595 at 10.75 h as a fraction of the colistin-free well. 1 = full growth, lower = more inhibition. No active / inactive call per well. Checkerboard doses stop near each drug's IC75, and their values pile up at 1, as if capped there. Colistin and gentamicin are mixtures; one drawing stands for each.

Test system: Escherichia coli BW25113
Test: growth relative to no-drug wells (fraction of no-drug control); higher = more growth, less inhibition
Protocol: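 8 x 8 checkerboard in cation-adjusted Mueller-Hinton broth at 37 °C; OD600 at the end of exponential growth as a fraction of no-drug wells, two biological replicates.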

CN(C)c1ccc(O)c2c1C[C@H]1C[C@H]3[C@H](N(C)C)C(O)=C(C(N)=O)C(=O)[C@@]3(O)C(O)=C1C2=O [Minocycline] + Oc1ccc([N+](=O)[O-])c2cccnc12 [nitroxoline]
growth
Details | nitroxoline concentration 0.136 µg/ml | nitroxoline concentration 0.255 µg/ml | nitroxoline concentration 0.374 µg/ml | nitroxoline concentration 0.493 µg/ml | nitroxoline concentration 0.612 µg/ml | nitroxoline concentration 0.731 µg/ml | nitroxoline concentration 0.85 µg/ml
0.0125 µg/ml | 1 | 1 | 0.799 | 0.53 | 0.603 | 0.505 | 0.332
0.0215 µg/ml | 1 | 1 | 0.849 | 0.744 | 0.591 | 0.4721 | 0.341
0.025 µg/ml | 1 | 1 | 1 | 0.732 | 0.633 | 0.515 | 0.357
0.043 µg/ml | 1 | 1 | 1.002 | 0.771 | 0.642 | 0.524 | 0.375
0.05 µg/ml | 1 | 1 | 1.01 | 0.746 | 0.663 | 0.55 | 0.348
0.086 µg/ml | 1 | 1 | 0.927 | 0.797 | 0.587 | 0.4814 | 0.378
0.1 µg/ml | 1 | 1 | 0.837 | 0.624 | 0.512 | 0.471 | 0.397

O=C1CN(/N=C/c2ccc([N+](=O)[O-])o2)C(=O)N1 [Nitrofurantoin]
nitroxoline concentration 0 µg/ml
Details | growth
0.75 µg/ml | 0.877
1.29 µg/ml | 0.89
1.5 µg/ml | 0.942
2.58 µg/ml | 0.834
3 µg/ml | 0.795
5.16 µg/ml | 0.0555
6 µg/ml | 0.135

O=C1CN(/N=C/c2ccc([N+](=O)[O-])o2)C(=O)N1 [Nitrofurantoin] + Oc1ccc([N+](=O)[O-])c2cccnc12 [nitroxoline]
growth
Details | nitroxoline concentration 0.136 µg/ml | nitroxoline concentration 0.255 µg/ml | nitroxoline concentration 0.374 µg/ml | nitroxoline concentration 0.493 µg/ml | nitroxoline concentration 0.612 µg/ml | nitroxoline concentration 0.731 µg/ml | nitroxoline concentration 0.85 µg/ml
0.75 µg/ml | 1 | 1 | 0.896 | 0.725 | 0.615 | 0.551 | 0.546
1.29 µg/ml | 1 | 0.98 | 0.906 | 0.733 | 0.604 | 0.586 | 0.548
1.5 µg/ml | 1 | 0.966 | 0.871 | 0.716 | 0.589 | 0.573 | 0.564
2.58 µg/ml | 0.755 | 0.815 | 0.742 | 0.645 | 0.517 | 0.522 | 0.464
3 µg/ml | 0.703 | 0.7 | 0.643 | 0.604 | 0.553 | 0.501 | 0.494
5.16 µg/ml | 0.162 | 0.0664 | 0.142 | 0.0484 | 0.0184 | 0.0456 | 0.0447
6 µg/ml | 0.15 | 0.0547 | 0.154 | 0.0536 | 0.0141 | 0 | 0.0219

CO[C@@H]1[C@@H](OC(N)=O)[C@@H](O)[C@H](Oc2ccc3c(O)c(NC(=O)c4ccc(O)c(CC=C(C)C)c4)c(=O)oc3c2C)OC1(C)C [Novobiocin]
nitroxoline concentration 0 µg/ml
Details | growth
3.9916 µg/ml | 1
7.493 µg/ml | 1
10.9944 µg/ml | 1
14.4958 µg/ml | 0.9931
17.9972 µg/ml | 0.9947
21.4986 µg/ml | 0.91
25 µg/ml | 0.78

CO[C@@H]1[C@@H](OC(N)=O)[C@@H](O)[C@H](Oc2ccc3c(O)c(NC(=O)c4ccc(O)c(CC=C(C)C)c4)c(=O)oc3c2C)OC1(C)C [Novobiocin] + Oc1ccc([N+](=O)[O-])c2cccnc12 [nitroxoline]
growth
Details | nitroxoline concentration 0.136 µg/ml | nitroxoline concentration 0.255 µg/ml | nitroxoline concentration 0.374 µg/ml | nitroxoline concentration 0.493 µg/ml | nitroxoline concentration 0.612 µg/ml | nitroxoline concentration 0.731 µg/ml | nitroxoline concentration 0.75 µg/ml
3.9916 µg/ml | 0.962 | 1 | 1 | 0.973 | 0.874 | 0.747 | 0.64571
7.493 µg/ml | 0.981 | 0.975 | 0.965 | 0.666 | 0.859 | 0.6619 | 0.686
10.9944 µg/ml | 0.9937 | 0.932 | 0.72 | 0.69 | 0.691 | 0.656 | 0.562
14.4958 µg/ml | 0.957 | 0.961 | 0.677 | 0.709 | 0.691 | 0.565 | 0.537
17.9972 µg/ml | 0.916 | 0.917 | 0.464 | 0.441 | 0.529 | 0.509 | 0.442
21.4986 µg/ml | 0.976 | 0.714 | 0.4131 | 0.528 | 0.497 | 0.511 | 0.422
25 µg/ml | 0.883 | 0.562 | 0.245 | 0.457 | 0.468 | 0.462 | 0.399

CCN1CCN(C(=O)N[C@@H](C(=O)N[C@@H]2C(=O)N3[C@@H]2SC(C)(C)[C@@H]3C(=O)O)c2ccccc2)C(=O)C1=O [Piperacillin]
nitroxoline concentration 0 µg/ml
Details | growth
1.1176 µg/ml | 0.96
2.098 µg/ml | 0.946
3.0784 µg/ml | 0.766
4.0588 µg/ml | 0.609
5.0392 µg/ml | 0.311
6.0196 µg/ml | 0.15
7 µg/ml | 0.0323

CCN1CCN(C(=O)N[C@@H](C(=O)N[C@@H]2C(=O)N3[C@@H]2SC(C)(C)[C@@H]3C(=O)O)c2ccccc2)C(=O)C1=O [Piperacillin] + Oc1ccc([N+](=O)[O-])c2cccnc12 [nitroxoline]
growth
Details | nitroxoline concentration 0.12 µg/ml | nitroxoline concentration 0.225 µg/ml | nitroxoline concentration 0.33 µg/ml | nitroxoline concentration 0.435 µg/ml | nitroxoline concentration 0.54 µg/ml | nitroxoline concentration 0.645 µg/ml | nitroxoline concentration 0.75 µg/ml
1.1176 µg/ml | 0.876 | 0.665 | 0.75 | 0.815 | 0.699 | 0.611 | 0.526
2.098 µg/ml | 0.893 | 0.878 | 0.9019 | 0.834 | 0.721 | 0.57 | 0.5124
3.0784 µg/ml | 0.551 | 0.631 | 0.819 | 0.735 | 0.537 | 0.27 | 0.119
4.0588 µg/ml | 0.562 | 0.547 | 0.647 | 0.565 | 0.299 | 0.0517 | 0.0617
5.0392 µg/ml | 0.412 | 0.429 | 0.433 | 0.345 | 0.0864 | 0.0444 | 0.0599
6.0196 µg/ml | 0.19 | 0.191 | 0.327 | 0.183 | 0.0622 | 0.0504 | 0.0487
7 µg/ml | 0.029 | 0.0325 | 0.174 | 0.113 | 0.081 | 0.0535 | 0.0385
